The values below come from US10858425B2, “Pan-ELR+ CXC chemokine antibodies” (Eli Lilly and Company, priority 2013, dated 2020).

The target of assay [1] is T1, human CXCL6 (GCP-2) (Homo sapiens, UniProt P80162).
T1 sequence (P80162 40-114 limits assumed): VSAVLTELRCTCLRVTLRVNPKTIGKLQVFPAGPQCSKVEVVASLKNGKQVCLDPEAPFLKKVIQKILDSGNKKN
Nature of the assay: Biacore surface plasmon resonance binding to human CXCL6. The following applies: 25° C. As to the method: (§1) Biacore 2000 instrument and Biacore 2000 Evaluation Software Version 4.1 are used for surface plasmon resonance analysis. A […] chip is prepared using manufacturer's EDC/NHS amine coupling method. Briefly, the surfaces of all four flow cells are activated by injecting a 1:1 mixture of EDC/NHS for 7 minutes at 10 μL/min. Protein A is diluted to 100 μg/mL in 10 mM acetate, pH 4.5 buffer, and immobilized to achieve approximately 10,000 RU onto all 4 flow cells by 7-minute injection at a flow rate of 10 μL/minute. Unreacted sites are blocked with a 7-minute injection of ethanolamine at 10 μL/minute. Two injections of glycine (pH 1.5) for 30 seconds at 10 μL/minute are used to remove any non-covalently associated protein. Running buffer is HBS-EP+.
(§2) Antibody 1 or Antibody 2 is diluted to 2 μg/mL in running buffer, and approximately 400-600 RU is captured in flow cell (Fc). Ligands are diluted from 100 μg/mL to 50 nM in running buffer and then two-fold serially diluted in running buffer to 3.125 nM. Duplicate injections of each ligand concentration are injected at 100 μL/min for 150 seconds followed by a dissociation phase. […] The on-rate (kon) and off-rate (koff) for each ligand are evaluated using a “1:1 (mass transfer) Binding” binding model. The affinity […] is calculated from the binding kinetics according to the relationship: KD=koff/kon.
A general note: SPR reads the build-up and loss of mass on a sensor chip optically.

Assay [2] concerns the target T2, human CXCL7 (NAP-2) (Homo sapiens, UniProt P02775).
T2 sequence (P02775 59-128 limits assumed): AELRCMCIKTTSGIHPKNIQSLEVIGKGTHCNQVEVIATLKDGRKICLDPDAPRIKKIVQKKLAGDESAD
Nature of the assay: Biacore surface plasmon resonance binding to human CXCL7. The following applies: 25° C. As for the experimental part:
as §1, §2

The target of assay [3] is T3, human CXCL8 (Homo sapiens, UniProt P10145).
T3 sequence (P10145 28-99 limits assumed): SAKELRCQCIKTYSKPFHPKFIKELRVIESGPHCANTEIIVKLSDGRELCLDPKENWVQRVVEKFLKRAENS
Nature of the assay: Western blot analysis of human CXCL8 under reducing and non-reducing conditions. The following applies: antibody 1 μg/mL. It is filed as binding. As for the experimental part: To determine if Antibody 1 is able to bind a linear or conformational epitope, Western blot analysis is performed using reducing and non-reducing conditions. Electrophoresis of the proteins is performed using pre-cast NuPAGE® 4-12% Bis-Tris gels. NuPAGE® MES SDS running buffer is added to both the inner (200 mL) and outer (at least 600 mL) chambers of the mini-cells. Serial dilutions of human CXCL8 (400 ng, 100 ng, or 25 ng per lane) are made in NuPAGE® LDS 4× Sample Buffer with or without NuPAGE® IOX Sample Reducing Agent. Samples are heated at 95° C. for 2 minutes. Load volumes are 10 μL per lane for the samples, and 5 μL per lane for the SeeBlue Plus2 Prestained Standard marker. The gels are run at 200V for 35 minutes at room temperature.
Proteins are transferred to PVDF using the iBlot® Dry Blotting System with iBlot®® Transfer Stack, Nitrocellulose, Mini. The membrane is blocked in blocking solution (3% nonfat milk in phosphate buffered saline) for 1 hour at room temperature. Antibody 1 is added to the blocking solution to a final concentration of 1 μg/mL and then is incubated for 2 hours at room temperature. Following primary incubation, the antibody/block solution is removed, and the membrane is washed 3 times for 15 minutes in wash buffer (phosphate buffered saline+0.05% Tween 20). […]

B1: Antibody 1: antibody with heavy chain SEQ ID NO: 1 and light chain SEQ ID NO: 3, expressed in NSO cells (antibody)
heavy: QVQLVQSGAEVKKPGASVKVSCKASGYEFTSYWIHWVRQAPGQGLEWMGNISPNSGSANYNEKFKSRVTMTRDTSTSTVYMELSSLRSEDTAVYYCAREGPYSYYPSREYYGSDLWGQGTLVTVSSASTKGPSVFPLAPCSRSTSESTAALGCLVKDYFPEPVTVSWNSGALTSGVHTFPAVLQSSGLYSLSSVVTVPSSSLGTKTYTCNVDHKPSNTKVDKRV[human IgG4 Fc with S228P (EU numbers) not spelt out]
light: EIVLTQSPATLSLSPGERATLSCRASQSISNNLHWYQQKPGQAPRLLIYYTSRSVSGIPARFSGSGSGTDFTLTISSLEPEDFAVYYCGQNNEWPEVFGGGTKVEIKRTVAAPSVFIFPPSDEQLKSGTASVVCLLNNFYPREAKVQWKVDNALQSGNSQESVTEQDSKDSTYSLSSTLTLSKADYEKHKVYACEVTHQGLSSPVTKSFNRGEC
With B1, the values for the kon in assay [1] and in assay [2] were 7.07 ± 0.11 (1/Ms) × 10^5 and 9.00 ± 0.75 (1/Ms) × 10^5, respectively. Moreover, in assay [3] (non-reducing conditions), the “binding to non-reduced, denatured human CXCL8” value is recorded as “able to bind”. In assay [3] (reducing conditions), the “binding to reduced, denatured human CXCL8” value is reported as “unable to bind”.
